# Article PMC5836133
# Some of the results follow. At the low end of the ranking the order means little.
# System: T1, GST-NbGlk1(82-244)
# T1 sequence: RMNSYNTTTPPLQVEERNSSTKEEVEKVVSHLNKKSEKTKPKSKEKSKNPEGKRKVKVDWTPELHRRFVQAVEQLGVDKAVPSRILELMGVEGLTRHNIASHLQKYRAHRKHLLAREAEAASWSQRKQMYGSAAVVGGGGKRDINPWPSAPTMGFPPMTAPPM
# Assay: protein-binding microarray;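 note: rank-based score ranging −0.5 to +0.5 with E above 0.45 taken as significant binding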
# Details: NbGlk1 is a Golden2-like transcription factor of Nicotiana benthamiana; high values mean tight binding; most listed sequences are background and not binding sites; double strand, one strand shown
row,Sequence,binding signal [E-score]
1,CAAGATAA,0.0886
2,ATTGTTGG,0.0975
3,CAATAAGG,-0.028
4,ACGTAAGT,0.0284
5,AGCATACC,-0.088
6,AATGTATA,0.109
7,ACGTTCTC,-0.263
8,AGGGGTCA,-0.277
9,AAATGACA,-0.0441
10,AGCCCAAA,-0.053
11,AGGATTAG,-0.0156
12,ATACGGTG,0.107
13,CAATAAAG,0.0383
14,CAACGTTG,0.102
15,ACAGATTC,0.429
16,AAGGGCCC,-0.301
17,CAATCGCG,0.257
18,CAGCAATC,0.339
19,ACACCCGC,-0.109
20,ACCTTTGG,-0.19
21,AATGCGCG,-0.0078
22,ACAGAGAG,-0.159
23,AAGGTCTG,-0.107
24,ACTGGAGA,0.0064
25,ATACAAGC,-0.0415

row,Sequence,binding signal [E-score]
1,ATATAAAA,0.212
2,AGTAAGGG,-0.206
3,AACGAATG,-0.115
4,CAACTGGG,-0.185
5,CAATGCCA,-0.133
6,ACTCTCCG,-0.118
7,AGTTGCGC,-0.119
8,ACGTCTCA,-0.134
9,ATACGCCG,0.128
10,ACATTATA,0.112
11,ATTCTGTG,0.25
12,ACCACCGG,-0.131
13,AGAATTTA,0.222
14,ACAGTTCC,-0.0264
15,ATATTGCC,0.249
16,AAAGTTAA,-0.0775
17,ACACTCCA,-0.211
18,AGTCTTAC,0.0345
19,ACATTTTC,0.0919
20,CACTTCCC,-0.21
21,CAACGGAC,-0.0318
22,ATATTTCA,0.302
23,AGCGAAAC,-0.0203
24,CACCAGCC,-0.101
25,AAAAGTCA,-0.167

row,Sequence,binding signal [E-score]
1,AGACCCCC,-0.39
2,AGCAAAGC,-0.124
3,ACCCGTGG,-0.197
4,AATGCAGA,0.0978
5,AAGCGGGG,0.0556
6,ACGTAACA,0.0889
7,AGGTAGGC,-0.266
8,ACATCCGC,0.00512
9,CAACGATC,0.137
10,AGCAGACC,-0.152
11,AAGGCTAA,-0.12
12,ACATCCCC,-0.192
13,CACTTTCC,-0.00426
14,ATCACACA,0.274
15,ACAAACCT,-0.0659
16,AAGTGCCG,-0.0506
17,AGGAAGTG,0.0256
18,AAGCGTGA,-0.072
19,CACTAATC,0.0782
20,AAGCACGA,-0.00998
21,ACCATGGA,-0.149
22,AGCCTCAA,-0.0728
23,ACCTTCGT,-0.256
24,AGTTCTAA,0.02
25,AATAGAGC,0.000501

row,Sequence,binding signal [E-score]
1,ACGCGGTC,-0.25
2,CACGCTGC,-0.103
3,AAGCTCAC,-0.214
4,ACTTTCAC,-0.0688
5,ACACTAAC,-0.0362
6,AATTCTTC,0.128
7,ATGGGATC,0.191
8,ATGCTCAC,-0.064
9,AGGACACT,-0.142
10,CAATGCTC,-0.242
11,ACCGTGGC,-0.316
12,ACAGTGTC,-0.154
13,AGACCCTC,-0.276
14,AGAGATAC,0.222
15,CACCCATA,0.0776
16,AGACACAA,-0.0017
17,AGTCGGCC,-0.199
18,ATCCTCAT,0.212
19,AACTCGCA,0.0485
20,CACTGTAA,0.13
21,ATGTCTCG,-0.0633
22,CACCTCAG,-0.118
23,AATTATGG,0.137
24,AAGTTGAG,-0.0673
25,ACTGGAAT,0.256

row,Sequence,binding signal [E-score]
1,ACTGCGCG,-0.0216
2,AGTCCGAG,-0.211
3,CACAAACA,0.0675
4,ACACCTTC,-0.055
5,AGAGATCA,0.145
6,AAGGCAAC,-0.117
7,ACACGATA,0.189
8,AGACATTC,-0.0859
9,AGTTCGAT,0.0306
10,ATATATGA,0.285
11,AAGATTGG,0.206
12,AATGTACT,-0.0439
13,AGACGAGA,0.132
14,AGCTAGTA,-0.0696
15,ACGTCAGC,-0.197
16,AAGCGCCA,-0.233
17,ATGATTTG,0.257
18,ACATTAAT,0.0863
19,ACGAGCTA,-0.113
20,AACGGTCG,-0.174
21,CAGCAGGC,-0.201
22,AATCAGTG,0.266
23,ATCCGTCC,0.0276
24,AGCGCTAT,-0.094
25,ACAGCAGC,-0.0694

row,Sequence,binding signal [E-score]
1,AGGGGCTG,-0.171
2,ACCCGTCC,-0.218
3,AGAACCGG,-0.226
4,ACTTAACC,-0.0358
5,AACAACGA,0.063
6,ACGCTTTC,-0.173
7,ACTTTAAA,0.0978
8,AGTCGACT,-0.153
9,AAGCACTC,-0.236
10,AGGCATCG,-0.113
11,CAACCCTC,-0.172
12,AATCGAAT,0.318
13,ATCGACTG,0.0842
14,AAACGCTC,-0.0777
15,ATGGACAG,-0.0969
16,AAACCGAC,-0.115
17,AAGCAGAG,-0.0914
18,AGTGCGAC,-0.0858
19,ATGGGGTG,0.046
20,AGCGATTA,0.142
21,AATTGCTG,-0.0811
22,AATACGGT,0.05
23,AATTGACA,0.0868
24,ACGCATGA,-0.12
25,ACTTTTTG,0.036

row,Sequence,binding signal [E-score]
1,AGGGCCTA,-0.268
2,AGGTTTAG,-0.133
3,AATCGCGC,0.311
4,AAGCCGCT,-0.33
5,AAATATCA,0.367
6,AGTGCACG,-0.18
7,AGAATGTC,-0.153
8,AATACTTG,0.0444
9,ACTTCTTC,-0.121
10,AGAATGGG,-0.163
11,ATGCGGTC,-0.202
12,CAAGTTTC,-0.0676
13,AAACCAAA,0.13
14,AAACATTT,0.151
15,ATGCCACG,-0.0964
16,AATTAATA,0.114
17,AAGCGCGC,-0.02
18,ACTGTCCT,-0.0225
19,AAATATAT,0.326
20,ACTCCTCT,0.0244
21,ACAATGCC,-0.165
22,AGTAGCTC,-0.172
23,ACAGGGTG,-0.264
24,CAATTATG,0.0299
25,AACCTGGC,-0.119

row,Sequence,binding signal [E-score]
1,ACCGCTTC,-0.159
2,ATTTTCGG,0.237
3,AGCCGCCA,-0.26
4,AATCTAGA,0.452
5,AGACCGGA,0.016
6,ACATTAGG,0.00657
7,AAAAGTGA,0.0333
8,AAGGACGC,-0.201
9,CACGGTGA,-0.1
10,AACTGAAT,0.111
11,AGCCCACA,-0.244
12,ACGTTAAG,0.0386
13,AACTGTTA,0.149
14,CAGCGTGG,-0.0969
15,ACAACCGT,-0.0556
16,ACAAAAGG,-0.12
17,AGAAATAG,0.0671
18,AGACGCCT,-0.26
19,AGCGCCCA,-0.224
20,ACATATTG,0.00192
21,ATAGCTTC,-0.12
22,CACTCGAC,-0.126
23,AAGTCGTG,-0.0835
24,AACCGCCA,-0.19
25,AGGACCTC,-0.289

row,Sequence,binding signal [E-score]
1,ATTGATAA,0.126
2,ATGTCACG,0.00163
3,ACCCCTGC,-0.197
4,ATACTAGC,-0.0233
5,AAGACAGT,0.0876
6,AAGATCGG,0.151
7,CAGCCTCC,-0.266
8,ATTCCTTG,0.228
9,ACCGGGCC,-0.281
10,AATATTTC,0.34
11,ATTTTTTC,0.3
12,CACGAATC,0.332
13,ACATGGCT,-0.0655
14,AGATTCCT,0.455
15,ATGGAGAG,-0.15
16,ACCATGAG,-0.156
17,AACCAGCT,-0.175
18,ACGATACG,0.207
19,ACGCTCTC,-0.304
20,AGGTTCAG,-0.154
21,ATTGGCAG,-0.132
22,ATTCTGGA,0.248
23,AAAAACTA,0.127
24,ACTCATAT,0.134
25,AGAGCGTA,0.0178

row,Sequence,binding signal [E-score]
1,ATGGGCCG,-0.139
2,AGCGGCAC,-0.163
3,ATCCACAT,0.256
4,ATATCGAG,0.296
5,ACCTAGTA,-0.0967
6,AAGGGTAC,-0.186
7,ATAGCCCC,-0.0888
8,AATGCTGG,-0.177
9,AGCTCGTG,-0.223
10,AGCATCGA,0.0366
11,AAACATGC,-0.0323
12,AATGTAGT,0.055
13,AGTATACC,-0.111
14,AATCGTGT,0.314
15,ACAATGGT,0.0219
16,AGCGACTC,-0.193
17,ACCCGAGA,0.0141
18,ACACTGAG,-0.182
19,AACTGATA,0.214
20,AAGATCTA,0.356
21,AGATCAAG,0.113
22,AATGCGTA,0.129
23,ACATCGCG,0.0704
24,AATAGTGC,-0.0111
25,ACCCCAAG,-0.191

row,Sequence,binding signal [E-score]
1,ACTTAAAT,0.139
2,ATTCAAAA,0.111
3,AGCGACCT,-0.243
4,AGCCATTC,-0.114
5,AAGCCGAC,-0.13
6,AACATCTT,0.0923
7,AAAGGTGA,0.0514
8,AACGGATG,-0.0818
9,AGCATAGC,-0.228
10,ACACTGAT,0.187
11,ATGCCCCC,-0.174
12,ACCTGGAG,-0.229
13,ACCTCAGC,-0.231
14,AACCAGTC,-0.295
15,AGTCGGGG,-0.163
16,AATTCCCG,0.27
17,CAAACATG,-0.0161
18,AGCCAGGA,-0.0421
19,ACCGTATC,0.274
20,ACGCTACG,-0.105
21,AAAGTGTA,0.0173
22,ATGGATGG,-0.169
23,ATATTCTA,0.25
24,AGCTGTTG,-0.102
25,ACCAAGGA,-0.167

row,Sequence,binding signal [E-score]
1,AAACGATG,-0.16
2,ATTTTCCA,0.294
3,AACTGGAG,-0.157
4,ACATTTGG,-0.0359
5,ACACCCCC,-0.21
6,ACCGCACG,-0.087
7,ACGTTATG,-0.0468
8,ACGCCCCT,-0.251
9,AAGGAGTG,-0.198
10,ATACGCTG,0.148
11,ACGGGACA,-0.0397
12,ACAGTCCT,-0.249
13,CAATTGTG,-0.0156
14,ACCGGATC,0.21
15,CAGAGCGC,-0.152
16,ATTGCTGG,0.129
17,AACTAGGA,0.00745
18,CACCCAAG,-0.239
19,ACGCACAA,-0.00729
20,AGTATACG,0.0327
21,AGTCAGAA,0.00767
22,AAGCAGAT,0.244
23,AACCGCTT,-0.0922
24,AAATTGTC,0.129
25,AACATTAG,0.0375

row,Sequence,binding signal [E-score]
1,ATTAGACC,-0.0532
2,ACGAGGGA,-0.085
3,AGGTCTAG,-0.17
4,ATATCCCG,0.317
5,AACTTAGA,0.0841
6,CAGACGCG,-0.00846
7,AGCAGGAT,0.13
8,ATTTAGAA,0.279
9,ACAGACAT,-0.00831
10,ACGCCGCG,-0.129
11,AGTAAGGA,0.0328
12,CAAGTAAC,-0.0603
13,AGAGGCAT,-0.0539
14,ATAATCAT,0.225
15,AAAGGGAT,0.174
16,ACTTCGGC,-0.0867
17,ACGTAGAA,0.191
18,ATACGATG,0.167
19,AACGGAGG,-0.131
20,AGTCACAG,-0.154
21,CAAGCCCA,-0.102
22,AAAGCAAG,0.0292
23,AAACACTG,-0.0682
24,ATCTATTA,0.274
25,AAGGGCCA,-0.307

row,Sequence,binding signal [E-score]
1,ATACTTTC,0.152
2,AAATAATC,0.211
3,ACGAGCCG,-0.348
4,ATGGCGTA,-0.0603
5,AGCAGTGG,-0.11
6,ACATCCTG,-0.0847
7,ACTTATCG,0.031
8,ACTCCCCG,-0.147
9,ATGAGCCC,-0.287
10,ACTTTGGG,-0.0705
11,AGGCGGTC,-0.345
12,CAACTACC,-0.0561
13,ACCCAAAT,0.0351
14,ATTGTAGG,0.0245
15,AAGGTCAA,-0.124
16,ATGCGGGG,-0.119
17,AGCCGCTG,-0.302
18,AGCGCTAG,-0.235
19,ATAATTGC,0.135
